The whole screen tested about 48,000 compounds, of which about 1,200 (2.5%) were called active. Another 2% or so got no clear call; they are omitted.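 How the source made its calls: active means activation of at least 60% and not above a set upper limit (about 1 call in 100 departs from these limits); inconclusive means activation of 40% to 60%, or above that upper limit; inactive means activation under 40%.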 The list shows a part of the results.
These compounds were tested against Probable G-protein coupled receptor 32 (Homo sapiens) (UniProt O75388) (assay: qHTS for Agonists of Human Resolvin D1 Receptor DRV1). Details: CHO-K1 GPR32 beta-arrestin PathHunter luminescence, 90 min; at 76.9 µM; stronger effect = higher value; zero percent set by DMSO-only wells.
Chain of UniProt O75388 (O75388 whole entry, looked up): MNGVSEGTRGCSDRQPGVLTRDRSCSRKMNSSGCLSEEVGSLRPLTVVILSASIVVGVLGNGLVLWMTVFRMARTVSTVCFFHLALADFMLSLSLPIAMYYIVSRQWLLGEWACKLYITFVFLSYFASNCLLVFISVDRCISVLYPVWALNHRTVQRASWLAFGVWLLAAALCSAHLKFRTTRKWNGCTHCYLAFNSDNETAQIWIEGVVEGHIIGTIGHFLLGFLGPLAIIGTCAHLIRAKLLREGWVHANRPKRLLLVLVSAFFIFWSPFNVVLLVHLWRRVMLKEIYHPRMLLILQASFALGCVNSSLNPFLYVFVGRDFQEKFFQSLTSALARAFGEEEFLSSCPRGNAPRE
Outline: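 Luminescent readout of beta-Gal complementation quantifies ligand-induced beta-arrestin association with GPR32 in CHO-K1 cells; 90 min compound incubation at 37 °C, detection 1 h at room temperature.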
Further: 0% is about no effect.

Row | Compound | activation
1 | O=C(Nc1c(C(=O)N2CCN(c3ccccc3)CC2)oc2ccccc12)c1ccco1 | inactive: -9.87%
2 | CCN1CCCC1CN (centres undefined) | inactive: 0.193%
3 | Cc1ccccc1CN1c2ccccc2-c2nc(SCC(=O)NCc3ccccc3)ncc2S1(=O)=O | inactive: -2.52%
4 | Cc1c(C(=O)NCCc2ccc(Cl)cc2)sc2nc3n(c(=O)c12)CCCC3 | inactive: -15.2%
5 | CC(C)C(=O)NCC(c1ccc2c(c1)OCO2)N1CCN(c2ccccc2)CC1 (centres undefined) | inactive: -12.2%
6 | CCN1CCN(CCCNC(=O)c2ccc3c(c2)sc2nc(-c4ccc(OC)cc4)cn23)CC1 | inactive: -5.99%
7 | CCNc1c(NC(=O)c2cc(OCC)c(OCC)c(OCC)c2)c(=O)oc2ccccc12 | inactive: 1.02%
8 | CCOC(=O)c1c(-c2ccc(OC)cc2)oc2ccc(OCc3ccc(C(=O)OC)cc3)cc12 | inactive: -2.97%
9 | CC(NC(=O)C(=O)Nc1c2c(nn1-c1ccc(F)cc1)CSC2)c1ccccc1 (centres undefined) | inactive: -26.4%
10 | COc1cccc(CNC(=O)CCn2cccn2)c1 | inactive: 8.98%
11 | CCOC(=O)c1c(NC(=O)COc2ccc(F)cc2)sc2c1CCC(C)C2 (centres undefined) | inactive: 24.1%
12 | O=C(NCCCN1CCN(c2ccccc2F)CC1)c1nnc(Cc2ccc(Cl)cc2Cl)o1 | inactive: -9.76%
13 | CCCCC/C=C\C/C=C\CCCCCCCC(=O)NC(C)c1ccccc1 (centres undefined) | inactive: 12.1%
14 | CCC(=O)N1CCc2cc(Br)cc(S(=O)(=O)NCCc3ccccc3)c21 | inactive: 34%
15 | CCCCN(C)CCNC(=O)c1nn(-c2ccc(OC)cc2)c(=O)c2c1c1ccccc1n2C | inactive: -9.73%
16 | CCOC(=O)c1[nH]cnc1C(=O)Nc1ccc(F)cc1 | inactive: -77.4%
17 | CC(C)(C)C(=O)Nc1cccc(C(=O)OCc2cc(=O)n3nc(C4CCCCC4)sc3n2)c1 | inactive: -5.87%
18 | O=C(CSc1nc2ccccc2n1Cc1ccccc1Cl)NCc1ccccc1 | inactive: -33.3%
19 | N#C/C(=C\c1ccc(-c2cc(Cl)ccc2Cl)o1)C(=O)Nc1ccccc1C(=O)O | active: 111%
20 | COc1cccc(CNC(=O)CCNS(=O)(=O)c2ccc3c(c2)oc(=O)n3C)c1 | inactive: 4.33%
21 | Cc1cc(C)c(Cn2c(C(O)c3ccccc3)nc3ccccc32)c(C)c1 (centres undefined) | inactive: -6.57%
22 | Cc1ccc(OCc2nc3ccccc3n2Cc2ccccc2Cl)cc1 | inactive: -23.1%
23 | COc1ccc(Br)cc1CNC(=O)C1CCCCN1S(=O)(=O)c1ccc(F)cc1 (centres undefined) | inactive: -26.3%
24 | CCCNC(=O)CCc1c(C)nc2nc(-c3cc(OC)cc(OC)c3)nn2c1C | inactive: 3.64%
25 | COc1cccc(CNC(=O)CCC(=O)N2Cc3cccc(OC)c3Oc3ncccc32)c1OC | inactive: -3.19%
26 | CCn1cc(C(=O)NCc2ccccc2)c(=O)c2cc(S(=O)(=O)N3CCCCCC3)ccc21 | inactive: -0.855%
27 | COc1ccc(NC(=O)c2ccc(COc3ccccc3OC)o2)cc1OC | inactive: 16.6%

Row | Compound | activation
28 | Cc1cccc(-n2nnnc2S(C)(=O)=O)c1 | inactive: 9.92%
29 | O=C(Cc1ccccc1)Nc1c(C(=O)Nc2ccccc2F)oc2ccccc12 | inactive: 15.6%
30 | CCc1ccc(-c2[nH]c3c(c2-c2sc(C)c(C(=O)OC)c2O)c(=O)n(C)c(=O)n3C)cc1 | inactive: -6.37%
31 | COc1cccc2sc(N(Cc3cccnc3)C(=O)C3COc4ccccc4O3)nc12 (centres undefined) | inactive: -18.2%
32 | COc1ccc(N(C)C(=O)CCS(=O)(=O)c2cccc3nsnc23)cc1 | inactive: -0.449%
33 | O=C(Cn1ncc2c(=O)oc3ccccc3c21)NCc1ccc(Cl)cc1 | inactive: 10.9%
34 | CC(=O)N1CCCc2cc(S(=O)(=O)N(C)CC(=O)Nc3ccc(Cl)cc3C)ccc21 | inactive: 27%
35 | N=C(N)c1ccc2cc(OC(=O)c3ccc(N=C(N)N)cc3)ccc2c1 | inactive: -31.6%
36 | Cc1c(NC(=O)c2ccccc2F)cccc1-c1nc2cccnc2s1 | inactive: -16.6%
37 | Cc1ccc(Nc2nc3ccccc3c3nncn23)cc1C | inactive: 43.8%
38 | CCCN(CCC)C(=O)C1CCN(c2ncnc3c2nc2n3CCCCC2)CC1 | inactive: -2.65%
39 | COc1ccc(CNC(=O)C(C(C)C)N2Cc3ccccc3C2=O)cc1 (centres undefined) | inactive: -14.8%
40 | COc1ccc2c(c1)CCc1c(C(=O)Nc3c(C)nn(Cc4ccc(C)cc4)c3C)noc1-2 | inactive: -0.748%
41 | Cc1ccc(C)c(NC(=O)c2cc(S(=O)(=O)NCCC3=CCCCC3)ccc2F)c1 | inactive: -15.5%
42 | O=c1c(S(=O)(=O)c2ccccc2)cn(Cc2ccc(F)cc2)c2cc(N3CCCCC3)c(F)cc12 | inactive: -8.38%
43 | CCOc1ccc(CCNC(=O)CN(c2ccc(C)cc2)S(=O)(=O)N(C)C)cc1OCC | inactive: 3.48%
44 | CC1Cn2cc(C(=O)Nc3cccc(C(F)(F)F)c3)c(=O)c3c(Cl)ccc(c32)O1 (centres undefined) | inactive: 5.11%
45 | Cc1ccc(-c2onc(C)c2C)cc1S(=O)(=O)NC1CCCCC1 | inactive: -19.6%
46 | COC(=O)c1nnn(CC(=O)Nc2ccc(Br)c(C)c2)c1N | inactive: 19.1%
47 | Cc1ccc(-n2c(=O)c3c(c4cc(C)ccc4n3C)n(CC(=O)Nc3cc(C)cc(C)c3)c2=O)cc1 | inactive: -1.55%
48 | C[C@H]1C[C@@H]2[C@H]([C@@H](O)C[C@@]3(C)[C@H]2CC[C@]3(O)C(=O)CO)[C@@]2(C)C=CC(=O)C=C12 | inactive: -6.15%
49 | CCOC(=O)c1ccc(NC(=O)Cn2cc(C(=O)c3ccc(Cl)cc3)c(=O)c3ccc(C)nc32)cc1 | inactive: 7.09%
50 | COc1cc(OC)cc(-c2nc3nc(C)c(CCC(=O)Nc4cc(F)ccc4F)c(C)n3n2)c1 | inactive: -1.17%
51 | COc1ccc(N2CC(NC(=O)c3ccc(S(=O)(=O)N4CCCCC4)cc3)CC2=O)cc1OC (centres undefined) | inactive: 18.5%
52 | Cc1cccc(NC(=O)c2cc(S(=O)(=O)N3CCC4(CC3)OCCO4)ccc2F)c1 | inactive: -21.2%
53 | CCSc1ncc(Cl)c(C(=O)Nc2c(C(=O)c3ccccc3)oc3ccccc23)n1 | inactive: 1.76%
54 | Cc1nc2cc(-c3ccccc3)nn2c(C)c1CCC(=O)N1CCN(c2ccccc2)CC1 | inactive: 0.462%
